Reference: paper PMC9878616 (Protein Science : A Publication of the Protein Society, 2023)

Target: the molecule itself
Experiment: SEC + other: DLS/SLS

B1: N-terminal GST-like domain of P. berghei tRip (tRip-N) (domain or fragment, UniProt A0A509ARF0 1-202, looked up)
chain: MGCTLNLVENDIKSDILKLALDFIKTNIVENDDNVVFPEIKYGQKISYEHNKKTYKEFFCSLYAIIDTYNCYSQFFCENEDKVSESEEFIFNLASDKFKLKPLDMKHLNDILRERSYIVSDKHASLVDIFYFCCVYKILKPMTAKEKVEYYHICRWYIHLQETLICDFVKLHKLDIRSGVESLLNSGIVTCTNEKASNEQVGS
- stoichiometry N: 2
